These are yes or no findings as the source states them, for the method shown. For part of these data: Binding seen in cells or lysates may run through a third protein. Some results given as binding are weak or reduced against the parent protein; the word gives no strength.

By UniProt entry, the sequences of proteins in these tests, tags left out. Where a name states a change or a piece, a line headed by the entry shows the natural chain unless it says otherwise. Residues count along the entry.
UniProt Q9NSP4: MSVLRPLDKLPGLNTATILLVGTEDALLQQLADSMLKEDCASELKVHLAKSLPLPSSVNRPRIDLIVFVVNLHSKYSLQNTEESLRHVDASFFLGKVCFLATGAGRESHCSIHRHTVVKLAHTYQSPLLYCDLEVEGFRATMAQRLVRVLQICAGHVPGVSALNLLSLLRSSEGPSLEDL
UniProt Q92674: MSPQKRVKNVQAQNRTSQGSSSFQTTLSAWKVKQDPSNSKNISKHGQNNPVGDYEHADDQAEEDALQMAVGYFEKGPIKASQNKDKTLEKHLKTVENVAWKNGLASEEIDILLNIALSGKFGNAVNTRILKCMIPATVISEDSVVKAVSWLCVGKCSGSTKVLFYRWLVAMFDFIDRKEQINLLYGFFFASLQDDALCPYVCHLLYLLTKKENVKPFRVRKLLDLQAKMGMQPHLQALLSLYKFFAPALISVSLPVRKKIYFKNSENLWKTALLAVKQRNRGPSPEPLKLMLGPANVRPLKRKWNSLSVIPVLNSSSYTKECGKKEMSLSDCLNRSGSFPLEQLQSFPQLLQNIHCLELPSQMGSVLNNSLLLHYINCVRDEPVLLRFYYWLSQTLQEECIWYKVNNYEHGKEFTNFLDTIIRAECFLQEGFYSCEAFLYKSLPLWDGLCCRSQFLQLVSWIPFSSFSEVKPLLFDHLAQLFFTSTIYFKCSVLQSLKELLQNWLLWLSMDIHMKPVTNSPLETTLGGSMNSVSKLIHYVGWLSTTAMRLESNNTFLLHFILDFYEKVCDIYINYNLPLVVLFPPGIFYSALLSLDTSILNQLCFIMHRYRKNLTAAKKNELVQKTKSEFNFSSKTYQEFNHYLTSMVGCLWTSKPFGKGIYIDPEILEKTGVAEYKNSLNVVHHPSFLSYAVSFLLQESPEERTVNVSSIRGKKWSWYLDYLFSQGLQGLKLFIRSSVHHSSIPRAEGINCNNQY
His-CENP-I^57–281: residues 57-281 of Q92674
UniProt Q9BU64: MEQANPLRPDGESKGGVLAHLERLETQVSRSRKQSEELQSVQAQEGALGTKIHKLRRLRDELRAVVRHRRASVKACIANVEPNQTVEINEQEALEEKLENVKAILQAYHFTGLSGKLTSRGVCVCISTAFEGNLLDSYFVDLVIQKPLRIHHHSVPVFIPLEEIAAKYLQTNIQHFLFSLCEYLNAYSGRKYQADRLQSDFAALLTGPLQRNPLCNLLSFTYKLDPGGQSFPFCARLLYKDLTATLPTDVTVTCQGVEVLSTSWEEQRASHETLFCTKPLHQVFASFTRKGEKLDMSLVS
CENP-C construct 509–760 (Q03188, residues 509-760): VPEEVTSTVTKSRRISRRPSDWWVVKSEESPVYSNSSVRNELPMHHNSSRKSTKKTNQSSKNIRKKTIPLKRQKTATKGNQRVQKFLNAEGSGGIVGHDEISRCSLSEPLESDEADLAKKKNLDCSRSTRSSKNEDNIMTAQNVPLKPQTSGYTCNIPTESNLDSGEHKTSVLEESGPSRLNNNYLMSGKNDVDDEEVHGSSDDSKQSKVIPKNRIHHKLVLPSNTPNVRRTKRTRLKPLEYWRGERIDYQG
CENP-C construct 631–C-terminus (Q03188, residues 631-943): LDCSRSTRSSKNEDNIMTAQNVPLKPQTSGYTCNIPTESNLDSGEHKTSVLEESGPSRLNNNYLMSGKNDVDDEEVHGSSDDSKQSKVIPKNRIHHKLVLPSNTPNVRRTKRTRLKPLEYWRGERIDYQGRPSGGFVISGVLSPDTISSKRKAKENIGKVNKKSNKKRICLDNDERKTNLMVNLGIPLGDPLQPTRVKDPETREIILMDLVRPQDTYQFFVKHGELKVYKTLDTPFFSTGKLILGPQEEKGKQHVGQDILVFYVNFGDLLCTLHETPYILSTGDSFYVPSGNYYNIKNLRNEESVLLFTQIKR
UniProt Q8N2Z9: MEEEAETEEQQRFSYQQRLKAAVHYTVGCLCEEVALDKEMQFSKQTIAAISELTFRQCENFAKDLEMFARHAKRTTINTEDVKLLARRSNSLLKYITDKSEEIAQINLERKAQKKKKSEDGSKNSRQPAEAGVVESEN
UniProt Q7L2Z9: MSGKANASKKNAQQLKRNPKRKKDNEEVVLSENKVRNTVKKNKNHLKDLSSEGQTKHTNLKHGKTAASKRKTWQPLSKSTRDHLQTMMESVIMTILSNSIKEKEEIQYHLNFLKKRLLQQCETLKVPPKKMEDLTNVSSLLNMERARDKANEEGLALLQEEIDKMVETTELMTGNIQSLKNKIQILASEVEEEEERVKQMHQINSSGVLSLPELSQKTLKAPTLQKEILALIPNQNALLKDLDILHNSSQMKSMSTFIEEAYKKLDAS
UniProt Q13352: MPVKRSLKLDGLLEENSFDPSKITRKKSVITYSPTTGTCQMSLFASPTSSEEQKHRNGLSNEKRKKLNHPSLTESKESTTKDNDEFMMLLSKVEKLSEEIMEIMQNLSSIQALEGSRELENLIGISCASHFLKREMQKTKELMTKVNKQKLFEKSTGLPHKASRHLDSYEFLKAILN
UniProt Q9BS16: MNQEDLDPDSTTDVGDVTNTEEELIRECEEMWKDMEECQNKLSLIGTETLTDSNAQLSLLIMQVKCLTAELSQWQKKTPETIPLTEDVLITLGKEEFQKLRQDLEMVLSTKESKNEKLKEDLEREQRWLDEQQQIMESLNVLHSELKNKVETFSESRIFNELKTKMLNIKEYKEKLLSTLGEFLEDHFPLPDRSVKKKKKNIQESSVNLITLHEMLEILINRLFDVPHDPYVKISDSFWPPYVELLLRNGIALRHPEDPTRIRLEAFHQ
UniProt Q9H3R5: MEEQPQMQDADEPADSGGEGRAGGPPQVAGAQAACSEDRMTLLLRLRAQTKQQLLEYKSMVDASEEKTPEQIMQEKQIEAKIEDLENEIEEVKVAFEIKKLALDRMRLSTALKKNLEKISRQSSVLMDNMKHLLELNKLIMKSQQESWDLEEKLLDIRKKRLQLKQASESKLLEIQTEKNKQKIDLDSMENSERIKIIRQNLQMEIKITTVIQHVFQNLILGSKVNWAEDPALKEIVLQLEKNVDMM
UniProt Q9H081: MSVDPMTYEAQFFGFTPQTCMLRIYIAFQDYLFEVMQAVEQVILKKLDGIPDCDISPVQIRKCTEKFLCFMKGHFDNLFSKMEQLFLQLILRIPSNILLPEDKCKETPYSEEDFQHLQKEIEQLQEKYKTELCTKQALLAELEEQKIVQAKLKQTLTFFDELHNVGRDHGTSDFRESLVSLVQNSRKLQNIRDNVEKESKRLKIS

Experimental findings from publication PMC4080450, “The pseudo GTPase CENP-M drives human kinetochore assembly” (eLife, 2014) are described below.

Test [1] addresses GFP-CENP-M^wt (human) (UniProt Q9NSP4). As to the kind of experiment: co-IP; GFP-Trap precipitation from extracts of nocodazole-arrested mitotic HeLa Flp-In T-REx cells expressing GFP-CENP-M fusions; 75 mM HEPES pH 7.5, 150 mM KCl, 0.075% NP-40, benzonase; western blotting. (In western blotting, separated proteins are transferred to a membrane and probed.)
Test [2] addresses GFP-CENP-M^L94A+L163E (human) (UniProt Q9NSP4). Described as above.
Test [3] addresses CENP-I^57–C (of the CENP-HI^57–CKM complex) (human) (UniProt Q92674). As to the kind of experiment: cross-linking; purified CENP-HI^57–CKM complex cross-linked on lysines (BS2G in the results, isotope-labeled disuccinimidyl suberate in the methods), Lys-C and trypsin digest, LC-MS/MS, xQuest; both purified.
The target is the same in test [4]. As to the kind of experiment: SEC; subunits co-expressed in insect cells, complex co-purified by the His tag of one subunit and ion exchange, then SEC on Superdex 200 in 150 mM NaCl; both purified. (In gel filtration, larger molecules generally elute earlier.)
In test [5] the target is GST-CENP-M^L94A–L163E (human) (UniProt Q9NSP4). Description: pull-down; GST-CENP-M (wt or mutant), CENP-I^57–C, CENP-H and His-CENP-K co-expressed in Tnao38 insect cells; cleared lysate on glutathione sepharose, 4°C, 2 hr, 20 mM HEPES pH 7.5, 300 mM NaCl, 1 mM TCEP; SDS-PAGE, Coomassie and western blotting.
Test [6] addresses CENP-O/CENP-P/CENP-Q/CENP-U complex (UniProt Q9BU64). As to the kind of experiment: SEC; analytical SEC co-elution (Superdex200 5/150 or Superose6 5/150), 4°C; proteins mixed in 50 µl, at least 2 hr on ice; SEC buffer with 300 mM NaCl (proteins not stable in lower NaCl); both purified.
For test [7], the target named is CENP-C construct 631–C-terminus (UniProt Q03188). Described as above.
Test [8] deals with CENP-C construct 509–760 (UniProt Q03188). The test is described as above.
Test [9] addresses CENP-O/CENP-P sub-complex (UniProt Q9BU64). The description is as above.
For test [10], the target named is CENP-T/CENP-W sub-complex (phosphorylated by Cdk1) (UniProt Q96BT3). The description is as above.
For test [11], the target named is CENP-T/CENP-W sub-complex (not phosphorylated) (UniProt Q96BT3). Described as above.
Test [12] deals with CENP-S/CENP-X sub-complex (UniProt Q8N2Z9). The test is described as above.
Test [13] concerns the target CENP-T/CENP-W/CENP-S/CENP-X complex (UniProt Q96BT3). The test is described as above.
Test [14] deals with CENP-Q/CENP-U sub-complex (UniProt Q7L2Z9). The test is described as above.
For test [15], the target named is CENP-R (UniProt Q13352). Described as above.
Test [16] has as its target His-CENP-I^57–281 (human) (UniProt Q92674). As to the kind of experiment: SEC; analytical SEC co-elution (Superdex200 5/150 or Superose6 5/150), 4°C; proteins mixed in 50 µl, at least 2 hr on ice; SEC buffer with 150 mM NaCl; both purified.
The target of test [17] is T1, Zwint (UniProt O95229).
T1 sequence: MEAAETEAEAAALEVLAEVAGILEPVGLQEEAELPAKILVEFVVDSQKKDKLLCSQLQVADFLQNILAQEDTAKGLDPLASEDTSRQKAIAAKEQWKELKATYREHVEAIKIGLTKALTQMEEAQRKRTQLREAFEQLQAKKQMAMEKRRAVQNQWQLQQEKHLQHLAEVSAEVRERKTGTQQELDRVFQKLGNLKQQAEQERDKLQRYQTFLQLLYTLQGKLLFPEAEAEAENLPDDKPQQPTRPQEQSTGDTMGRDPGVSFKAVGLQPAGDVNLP
Described as above.

Test [18] has as its target GST-CENP-M^wt (human) (UniProt Q9NSP4). As to the kind of experiment: pull-down; GST-CENP-M (wt or mutant), CENP-I^57–C, CENP-H and His-CENP-K co-expressed in Tnao38 insect cells; cleared lysate on glutathione sepharose, 4°C, 2 hr, 20 mM HEPES pH 7.5, 300 mM NaCl, 1 mM TCEP; SDS-PAGE, Coomassie and western blotting.
Test [19] concerns the target CENP-M^1–171 (human) (UniProt Q9NSP4). Description: SEC; SEC elution profile of the purified protein alone, with SDS-PAGE of peak fractions; both purified.

On to “CENP-I (endogenous) (from UniProt Q92674 1-756)”, for which the binding entry in test [1] is reported as “binds”; in test [2] it was “no binding”.
As to “CENP-K (untagged, of the CENP-HI^57–CKM complex) (from UniProt Q9BS16 1-269)”, the binding entry in test [3] and in [4] was “binds” in each case.
For the substance His-CENP-K (from UniProt Q9BS16 1-269), in test [5], the binding entry is given as “no binding”.
Take CENP-M (from UniProt Q9NSP4 1-180): the binding result in test [6], in test [7], in test [8], in test [9], in test [10] and in test [11] was “no binding” in each case. Further, the binding result in test [12], in test [13], in test [14], in test [15], in [16] and in test [17] was “no binding” each time.
On to CENP-H (from UniProt Q9H3R5 1-247), for which the results for the binding entry in test [3], in test [4] and in test [5] were “binds”, “binds” and “no binding”, respectively.
As for “CENP-T/W (endogenous) (from UniProt Q96BT3 1-561; Q5EE01 1-88) (complex)”, in [2], the binding entry is “no binding”.
Regarding “Mis12 (endogenous) (from UniProt Q9H081 1-205)”, the binding entry in [2] is on record as “no binding”.
In the case of “CENP-M (of the CENP-HI^57–CKM complex) (from UniProt Q9NSP4 1-180)”, the binding entry in [3] and in [4] was “binds” each time.
Turning to “CENP-I^57–C (co-expressed with GST-CENP-M) (from UniProt Q92674 57-756) (domain or fragment)”, the results for the binding result in test [5] and in test [18] were “no binding” and “binds”, respectively.
Regarding “CENP-M^1–171 (from UniProt Q9NSP4 1-171) (domain or fragment)”, in test [19], the binding entry is “no binding”.
